The list shows a part of the results.
What was measured:
[1] = system: HSkMC (human skeletal muscle cells); assay: cytotoxicity call (relative viability < 0.9); conditions: 10 µM
[2] = system: S. aureus RN4220; assay: growth inhibition call (relative growth <= 0.2); conditions: 50 µM

SMILES | cytotoxicity call [1] | growth inhibition call [2]
COc1ccccc1C(=O)Nc1ccc2c(c1)C(=O)N(C)[C@@H]1CC[C@H](CC(=O)NCCc3ccncc3)O[C@H]1CO2 | inactive | inactive
CCSC(=O)NC1CCCCC1 | inactive | inactive
FC(F)(F)c1ccccc1-c1ncc(-c2ccccc2)o1 | inactive | inactive
O=C(C[C@@H]1CC[C@@H]2[C@H](COC[C@@H](O)CN2Cc2cc(F)ccc2F)O1)N[C@@H]1CCN(Cc2ccccc2)C1 | inactive | inactive
C[C@@H]1CCCCO[C@H](CN(C)C(=O)Nc2ccc(C(F)(F)F)cc2)[C@@H](C)CN([C@H](C)CO)C(=O)c2cc(NC(=O)CCCCCC(=O)Nc3ccccc3N)ccc2O1 | inactive | inactive
C[C@@H]1CN([C@@H](C)CO)C(=O)c2cc(NS(=O)(=O)c3cccs3)ccc2O[C@@H](C)CCCCO[C@H]1CN(C)Cc1ccc(C(F)(F)F)cc1 | inactive | inactive
CC12C=CC(=O)C=C1CCC1C2C(O)CC2(C)C1CCC2(O)C(=O)COC(=O)CCC(=O)O (stereo unspecified) | inactive | inactive
COc1ccc(NC(=O)N(C)C[C@H]2OCCCC[C@H](C)Oc3ccc(NC(=O)C4CCCCC4)cc3C(=O)N([C@@H](C)CO)C[C@@H]2C)cc1 | inactive | inactive
C[C@@H]1CCCCO[C@H](CN(C)S(=O)(=O)c2ccccc2)[C@@H](C)CN([C@H](C)CO)C(=O)c2cc(NC(=O)c3ccccc3)ccc2O1 | inactive | inactive
COc1ccc([C@H]2C/C=C\C[C@H](c3cccc(Cl)c3)NC(=O)[C@@H](c3ccccc3)CC(=O)N2)c(OC)c1 | inactive | inactive
O=C(C[C@@H]1CC[C@@H]2[C@H](COC[C@H](O)CN2Cc2ccccc2F)O1)N[C@H]1CCN(Cc2ccccc2)C1 | inactive | inactive
COc1ccc2c(c1)OC1c3ccc(OC)cc3OCC21 (stereo unspecified) | inactive | inactive
C=CCOC(=O)[C@H]1[C@@H]2C(=O)O[C@@H](c3ccccc3)[C@@H](c3ccccc3)N2[C@@H](c2ccc(OCCOC(=O)[C@@H]3C[C@@H]4C(=O)N5CCC[C@H]5C(=O)N4[C@@H]3c3cccc(OCCO)c3)cc2)[C@]12C(=O)Nc1ccc(I)cc12 | inactive | inactive
Cc1cc(C(=O)Nc2cccc3c2O[C@H](CN(C)S(=O)(=O)c2cccs2)[C@@H](C)CN([C@H](C)CO)C3=O)n(C)n1 | inactive | inactive
C[C@@H]1CCCCO[C@H](CN(C)C(=O)Nc2ccc(C(F)(F)F)cc2)[C@@H](C)CN([C@@H](C)CO)C(=O)c2cc(NS(=O)(=O)c3ccc(Cl)cc3)ccc2O1 | active | inactive
COc1cc(OC)c(S(=O)(=O)N(C)Cc2ccccc2)cc1S(=O)(=O)N(C)Cc1ccccc1 | inactive | inactive
COCC(=O)N1C[C@H](C)[C@H](OC)CN(C)C(=O)c2cc(NC(=O)c3ccc(OC)cc3)ccc2OC[C@H]1C | inactive | inactive
O=C(COP(=O)(O)O)[C@H](O)[C@@H](O)COP(=O)(O)O | inactive | inactive
CC(=O)N[C@H]1[C@@H](OCc2ccccc2)O[C@H](C(=O)O)[C@@H](OC(C)=O)[C@@H]1OC(C)=O | inactive | inactive
CC(C[N+](C)(C)C)OC(N)=O.[Cl-] (stereo unspecified) | inactive | inactive
C[C@@H]1CN([C@H](C)CO)C(=O)c2cc(NC(=O)Cc3ccccc3)ccc2O[C@@H](C)CCCCO[C@H]1CN(C)S(=O)(=O)c1ccc(F)cc1 | inactive | inactive
CC(C)CC#Cc1ccc2c(c1)O[C@@H](CN(C)C(=O)c1cccnc1)[C@H](C)CN([C@H](C)CO)S2(=O)=O | inactive | inactive
CCCN1C[C@H](C)[C@@H](OC)CN(C)C(=O)c2cc(NS(=O)(=O)c3cn(C)cn3)ccc2OC[C@H]1C | inactive | inactive
O=c1c(O)c(-c2ccccc2)oc2cccc(O)c12 | inactive | inactive
Cc1noc(C)c1S(=O)(=O)N(C)C[C@@H]1Oc2ccc(NS(=O)(=O)c3ccccc3)cc2C(=O)N([C@@H](C)CO)C[C@@H]1C | inactive | inactive
O=C(C[C@H]1C[C@@H]2c3cc(NS(=O)(=O)c4ccc(F)cc4)ccc3O[C@@H]2[C@H](CO)O1)N1CCOCC1 | inactive | inactive
C[C@H]1CN([C@@H](C)CO)C(=O)c2cccc(NC(=O)c3nc4ccccc4s3)c2O[C@@H]1CN(C)Cc1ccc(C(=O)Nc2ccccc2N)cc1 | inactive | inactive
COc1ccc2c3c(n(c2c1)C)[C@H](CO)N(C[C@]13CCN(CC1)C(=O)CN1CCOCC1)C(=O)Nc1ccc(cc1)F | inactive | inactive

— the antibiotic and cytotoxicity screens of Wong et al. (2023)
